# Laboratory results taken from the supplement of paper PMC3334620.
# Whole data set: some 33,000 sequences, median “E-score (-0.5 to 0.5)” near -0.012, cut for the highest 2% near 0.27. Some of the results follow.
# Target: T1, Vhr1 (UniProt P40522)
# T1 sequence: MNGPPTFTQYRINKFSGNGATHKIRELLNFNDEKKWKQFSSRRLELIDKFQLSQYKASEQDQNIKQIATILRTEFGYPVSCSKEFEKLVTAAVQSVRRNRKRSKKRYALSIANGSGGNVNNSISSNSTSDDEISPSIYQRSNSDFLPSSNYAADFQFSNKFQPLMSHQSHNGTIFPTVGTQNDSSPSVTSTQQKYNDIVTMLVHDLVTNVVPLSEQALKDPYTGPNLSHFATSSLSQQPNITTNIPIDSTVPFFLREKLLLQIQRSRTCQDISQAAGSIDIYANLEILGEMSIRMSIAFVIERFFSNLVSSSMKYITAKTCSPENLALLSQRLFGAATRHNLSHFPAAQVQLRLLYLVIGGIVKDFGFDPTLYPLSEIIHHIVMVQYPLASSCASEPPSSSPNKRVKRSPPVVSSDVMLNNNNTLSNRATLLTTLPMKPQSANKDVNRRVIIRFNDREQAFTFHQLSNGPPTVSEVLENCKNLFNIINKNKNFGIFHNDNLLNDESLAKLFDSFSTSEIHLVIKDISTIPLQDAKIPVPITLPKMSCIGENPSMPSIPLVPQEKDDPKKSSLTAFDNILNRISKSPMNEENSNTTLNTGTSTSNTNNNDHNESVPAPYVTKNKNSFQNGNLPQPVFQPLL
# Assay: PBM E-score (8-mer binding enrichment) (E-score (-0.5 to 0.5)); higher = stronger / more preferred TF binding; most listed sequences are background and not binding sites
# Conditions: protein concentration: 200 nM; construct: GST-full length
# Method in brief: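 Detection of bound protein used fluorescent anti-GST, with scans normalised by masliner. The proteins were GST-tagged yeast transcription factors applied at about 100-200 nM to universal all-10-mer Agilent arrays made double-stranded by primer extension. Each ungapped eight-base word, pooled with its reverse complement, was scored with an E-score from the Universal PBM Analysis Suite.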
row,Sequence,PBM E-score
1,CCTTGGAC,-0.222
2,CTTAGTGC,-0.0448
3,GGGGACAC,0.0467
4,AGCAAGCG,0.0653
5,GGCAGCCC,0.0305
6,CCATGTCA,-0.0314
7,GAAGGCAC,-0.0554
8,CTTGGTAA,-0.11
9,CGGTTGGC,0.195
10,GGCAGAAC,0.0769
11,GAATCGTC,0.137
12,ATATTACA,0.116
13,AATATAAA,0.146
14,AGTCTAGC,-0.0402
15,GACATCCC,0.0989
16,ATCTTTGG,-0.22
17,GATCCTAA,-0.0149
18,CCAGAGGG,-0.24
19,CTCAACAA,0.14
20,ATTCGAGG,-0.246
21,AACCATGG,0.135
22,AGCCACGG,-0.0818
23,AGATCGTA,-0.2
24,ATGGTAAT,-0.0166

row,Sequence,PBM E-score
1,CGTACCAG,0.00834
2,AGCCGTCA,-0.0405
3,TTGGACAA,-0.12
4,ATGTACAT,0.128
5,GCGCTTGA,-0.0355
6,ACTGAAGG,-0.109
7,AAACCTGA,0.133
8,ACGCACGC,0.164
9,CGTAGCCA,-0.0392
10,CAGTGCAG,-0.0455
11,CTAGGTGA,0.0418
12,AGACCCAC,0.0873
13,ATTTTAGA,-0.283
14,GGTCCAAA,-0.232
15,CAGACTTC,-0.208
16,GCAGACAA,-0.00778
17,AGCACGCC,-0.0683
18,AGGAGGTA,-0.0839
19,AGAGAGAT,-0.101
20,CCGCTTCA,0.0058
21,ATGGGTTA,0.134
22,GGCCCGAA,-0.0251
23,GATCGGGC,-0.0757
24,ACTTTTAA,-0.185

row,Sequence,PBM E-score
1,CCACGAGC,0.0593
2,AGTTTCCC,-0.0976
3,CGCGAAGA,0.125
4,AGATATGG,0.158
5,AAAGCCAA,-0.218
6,CCTGTAAA,-0.251
7,CCCTGAAA,-0.105
8,AGGAACGA,-0.0754
9,CCGACTGC,0.126
10,ACTCAGCT,0.161
11,ATCTGCAA,-0.13
12,ACTCTCGC,0.0365
13,ACTGCGGA,0.216
14,ACCGCGCT,0.0474
15,AGAGACGC,-0.0087
16,CGGTTGAA,0.0331
17,GTACAGGA,0.0852
18,ACTGTAAT,0.142
19,ACGCCGTG,-0.023
20,ATTCTCAC,0.0456
21,CTAGAGCA,-0.0073
22,ATCTACTC,0.0265
23,GCTATGCA,-0.157
24,ATCGGAGG,-0.133

row,Sequence,PBM E-score
1,ACATGCGG,0.0698
2,AGTGGAGG,-0.00198
3,TAGAATGA,0.111
4,ACCAGTCC,-0.0311
5,ACTTTTTG,-0.0849
6,GTACTACA,0.164
7,ATCCCGAG,0.152
8,ATTAGGCC,-0.047
9,GAGGAATA,0.00618
10,CATGTTAA,0.0934
11,GCCGCGAC,0.157
12,AATCATCG,0.334
13,GGGCGACA,-0.00179
14,CGGTCCAC,-0.21
15,AAGAGCCG,-0.177
16,GGGCACGA,-0.069
17,GCCCCGGC,0.0561
18,AGCTACTA,-0.16
19,GACTTATC,0.0234
20,CACTTGAC,-0.13
21,ATGGGGTC,0.151
22,TGAGGTAA,-0.116
